Results as given in the supplement of paper PMC11876631.
Changes are numbered by the printed parent chain. Names and notes keep the numbering of the source. ± gives the standard deviation of the averaged measurements. Laboratory Escherichia coli strains with one amino-acid change in an essential protein, pooled on minimal glucose agar with carbenicillin or gentamicin at twice the control MIC (plus kanamycin and chloramphenicol for the plasmids), 48 h. Fold change of barcode share against drug-free plates; higher = less susceptible. Active = above 20 in both replicates (the paper's putatively resistant). '<' = one read or none on drug, '>' = one read or none on a drug-free plate. Shares are relative, so most strains fall below 1 when a few take over. Listed are strains with at least 15 reads on both drug-free plates, and hits; most hits rest on fewer reference reads. Replicate rank correlation about 0.5. Edits are read from barcodes.

B1: mukF L32A (protein)
chain: MSEFSQTVPELVAWARKNDFSISLPVDRLSFALAVATLNGERLDGEMSEGELVDAFRHVSDAFEQTSETIGVRANNAINDMVRQRLLNRFTSEQAEGNAIYRLTPLGIGITDYYIRQREFSTLRLSMQLSIVAGELKRAADAAEEGGDEFHWHRNVYAPLKYSVAEIFDSIDLTQRLMDEQQQQVKDDIAQLLNKDWRAAISSCELLLSETSGTLRELQDTLEAAGDKLQANLLRIQDATMTHDDLHFVDRLVFDLQSKLDRIISWGQQSIDLWIGYDRHVHKFIRTAIDMDKNRVFAQRLRQSVQTYFDEPWALTYANADRLLDMRDEEMALRDEEVTGELPEDLEYEEFNEIREQLAAIIEEQLAVYKTRQVPLDLGLVVREYLSQYPRARHFDVARIVIDQAVRLGVAQADFTGLPAKWQPINDYGAKVQAHVIDKY
B2: mukF V35A (protein)
chain: B1 chain with A32L, V35A
B3: mukF L33A (protein)
chain: B1 chain with A32L, L33A
B4: mukF L33Q (protein)
chain: B1 chain with A32L, L33Q
B5: mukF L33W (protein)
chain: B1 chain with A32L, L33W
B6: asd I110A (protein)
chain: MKNVGFIGWRGMVGSVLMQRMVEERDFDAIRPVFFSTSQLGQAAPSFGGTTGTLQDAFDLEALKALDIIVTCQGGDYTNEIYPKLRESGWQGYWIDAASSLRMKDDAIIALDPVNQDVITDGLNNGIRTFVGGNCTVSLMLMSLGGLFANDLVDWVSVATYQAASGGGARHMRELLTQMGHLYGHVADELATPSSAILDIERKVTTLTRSGELPVDNFGVPLAGSLIPWIDKQLDNGQSREEWKGQAETNKILNTSSVIPVDGLCVRVGALRCHSQAFTIKLKKDVSIPTVEELLAAHNPWAKVVPNDREITMRELTPAAVTGTLTTPVGRLRKLNMGPEFLSAFTVGDQLLWGAAEPLRRMLRQLA
B7: mukE I98W (protein)
chain: MSSTNIEQVMPVKLAQALANPLFPALDSALRSGRHIGLDELDNHAFLMDFQEYLEEFYARYNVELIRAPEGFFYLRPRSTTLIPRSVLSELDMMVGKWLCYLYLSPERLANEGIFTQQELYDELLTLADEAKLLKLVNNRSTGSDVDRQKLQEKVRSSLNRLRRLGMVWFMGHDSSKFRITESVFRFGADVRAGDDPREAQRRLIRDGEAMPIENHLQLNDETEENQPDSGEEE
B8: mukE V184P (protein)
chain: B7 chain with W98I, V184P
B9: mukE V184Q (protein)
chain: B7 chain with W98I, V184Q
B10: mukE I98Q (protein)
chain: B7 chain with W98Q
B11: mukE V184A (protein)
chain: B7 chain with W98I, V184A
B12: mukE L109A (protein)
chain: B7 chain with W98I, L109A
B13: mukE I98D (protein)
chain: B7 chain with W98D
B14: mukE L109W (protein)
chain: B7 chain with W98I, L109W
B15: mukE L109D (protein)
chain: B7 chain with W98I, L109D

Target: Escherichia coli (laboratory strain)
Test: barcode share on antibiotic plates over drug-free plates; higher = less susceptible
Procedure: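 A pool of E. coli strains, each edited to carry one amino-acid change in an essential protein, was grown for 48 h on minimal glucose agar with or without antibiotic; strain barcodes were sequenced; mean of two replicates.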

[1] = antibiotic: carbenicillin, 2× MIC (3.1 µg/mL)
[2] = antibiotic: gentamicin, 2× MIC (MIC 0.45 µg/mL)

Protein	fold change of barcode share [1]	fold change of barcode share [2]
B1	0.221 ± 0.05	0.00517 ± 0.0035
B2	0.264 ± 0.03	< 0.00191
B3	0.207 ± 0.028	< 0.0046
B4	0.421 ± 0.015	0.0118 ± 0.0085
B5	0.208 ± 0.034	< 0.00205
B6	0.34 ± 0.078	0.00569 ± 0.0064
B7	0.272 ± 0.14	< 0.0117
B8	0.255 ± 0.037	< 0.00591
B9	0.167 ± 0.072	< 0.00594
B10	0.184 ± 0.051	< 0.013
B11	0.183 ± 0.062	0.0136 ± 0.012
B12	0.244 ± 0.0078	< 0.00529
B13	0.226 ± 0.046	–
B14	0.257 ± 0.085	< 0.00525
B15	0.378 ± 0.17	< 0.00366
